Hit rate of the full screen: of about 48,000 compounds, about 1,200 (2.5%) were called active. Roughly 2% stayed inconclusive and do not appear here.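 How the source made its calls: active means activation of at least 60% and not above a set upper limit (about 1 call in 100 departs from these limits); inconclusive means activation of 40% to 60%, or above that upper limit; inactive means activation under 40%.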 This is one part of the list.

The target of the assay is Probable G-protein coupled receptor 32 (Homo sapiens) (UniProt O75388). Description: qHTS for Agonists of Human Resolvin D1 Receptor DRV1. Further: 0% is about no effect. The conditions noted are these: CHO-K1 GPR32 beta-arrestin PathHunter luminescence, 90 min; at 76.9 µM; active compounds read high; zero percent set by DMSO-only wells. In outline: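 Luminescent readout of beta-Gal complementation quantifies ligand-induced beta-arrestin association with GPR32 in CHO-K1 cells; 90 min compound incubation at 37 °C, detection 1 h at room temperature.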
Sequence of UniProt O75388 (O75388 whole entry, looked up): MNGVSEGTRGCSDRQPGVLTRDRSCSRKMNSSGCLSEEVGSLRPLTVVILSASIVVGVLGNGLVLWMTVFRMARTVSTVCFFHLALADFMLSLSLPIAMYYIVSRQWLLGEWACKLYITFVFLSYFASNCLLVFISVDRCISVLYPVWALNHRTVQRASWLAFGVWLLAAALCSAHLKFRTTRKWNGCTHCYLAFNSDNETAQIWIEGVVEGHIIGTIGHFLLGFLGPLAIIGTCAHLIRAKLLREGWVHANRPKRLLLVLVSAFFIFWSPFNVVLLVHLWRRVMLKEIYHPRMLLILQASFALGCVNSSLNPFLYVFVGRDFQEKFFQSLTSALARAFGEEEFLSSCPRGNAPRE
For orientation: qHTS replaces the single test concentration by a dilution series.
Take `CCOC(=O)c1c(S(=O)(=O)N2CCCC(C(=O)NCc3cccc(C)c3)C2)c(C)n(C)c1C` (stereo not drawn): the activation is inactive: -2.03%.

On to `Cc1ccc(-c2noc(-c3ccc(N4CCN(C)CC4)c([N+](=O)[O-])c3)n2)cc1`, for which the activation is inactive: 12.2%.

In the case of `O=C(COc1ccccc1)NCC(c1ccc(Cl)cc1)N1CCOCC1` (stereo not drawn), the activation is inactive: -3.14%.

Turning to `Cc1ccc(NC(=O)c2oc3ccc4c(c3c2C)C(=O)CC(C)(C)O4)c(C)c1`, the activation is inactive: -12.6%.

Take `COc1ccc(C)cc1NS(=O)(=O)c1c(C(=O)N2CCC(C)CC2)c(C)n(C)c1C`: the activation is inactive: -24.8%.

On to `COC(=O)c1ccc(NC(=O)CCCC(=O)OCC(=O)c2ccc(Cl)cc2)cc1`, for which the activation was inactive: 6.98%.

For `O=C(CSc1n[nH]c(-c2ccc(F)cc2)n1)NCc1ccccc1Cl`, the activation is inactive: -12.4%.

On to `COc1ccc(C2C=C(c3ccc(Cl)cc3)Nc3nc(-c4ccc(Cl)cc4)nn32)cc1` (stereo not drawn), for which the activation is inactive: 10.2%.

Consider `CCOc1c(Br)cc(C2CC(=O)Nc3cc4c(cc32)OCO4)cc1OC` (stereo not drawn), for which the activation was inactive: -24.8%.

As to `COc1ccc(CCNC(=O)c2cccc(Nc3nc4ccccc4nc3-n3nc(C)cc3C)c2)cc1OC`, the activation is inactive: 1.4%.

In the case of `OCC1O[C@H]([S-])[C@H](O)[C@@H](O)[C@@H]1O.[Au+]` (stereo partly drawn), the activation was inactive: 2.01%.

`Cc1ccc2c(=O)c(C(=O)c3ccc(F)cc3)cn(CC(=O)Nc3ccc4c(c3)OCCO4)c2n1`: the activation was inactive: -3.21%.

`COC(=O)c1ccccc1NC(=O)c1nc(-c2ccc(Cl)cc2)n2c1CCCCC2`: the activation is inactive: 12.2%.

As to `CCOc1cccc(C(=O)Nc2cc(C)c(O)c(-c3nc4ncccc4o3)c2)c1`, the activation is inactive: 2.19%.

Regarding `COC(=O)c1ccc(NC(=O)CSc2nnc3c4ccccc4n(C(C)C)c3n2)cc1`, the activation was inactive: 12.1%.

Consider `Cc1ccc(NC(=O)c2ccc(CN3CC(=O)N4CCCCC4C3=O)cc2)c(C)c1` (stereo not drawn), for which the activation is inactive: -9.96%.

`NCCS(=O)O`: the activation is inactive: 3.84%.

With `COc1ccc(CNC(=O)CC(c2ccc(OC)cc2)N2Cc3ccccc3C2=O)cc1` (stereo not drawn), the activation was inactive: -18.6%.

With `COc1cccc(Cc2nc3ccccc3nc2SCC(=O)N2CCCc3ccccc32)c1`, the activation is inactive: -22.5%.

Take `Cc1ccc(-c2nn(CC(=O)NCc3ccccc3)c3c2cnc2ccc(F)cc23)cc1C`: the activation is inactive: -10.3%.

For `O=C(CSc1nccn1C1CCCC1)Nc1cc(C(F)(F)F)ccc1Cl`, the activation was inactive: -14.6%.

In the case of `CCOC(=O)c1c(NC(=O)c2cc(=O)c3cc(C)cc(C)c3o2)sc(C)c1C`, the activation is inactive: -0.122%.

On to `Cc1c(NC(=O)C(C)(C)Oc2ccc(Cl)cc2)cccc1-c1nc2ccccc2o1`, for which the activation was inactive: -17.1%.

`CCCNC(=O)CN1C(=O)COc2ccc(S(=O)(=O)N3CCC(C)CC3)cc21`: the activation was inactive: -3.51%.

Turning to `COc1ccc(OC)c(-n2c3c(cc(-c4nc(-c5ccc(Cl)cc5)cs4)c2=O)C(=O)CC(C)(C)C3)c1`, the activation is inactive: 21.3%.

On to `O=C(c1ccc2c(c1)N(Cc1ccccc1)C(=O)c1ccccc1S2(=O)=O)N1CCc2ccccc21`, for which the activation is inactive: -12.2%.

Turning to `COc1ccccc1CNC(=O)CSc1ccc(-c2sc(-c3ccccc3)nc2C)nn1`, the activation is inactive: -15.5%.

For the compound `O=S(=O)(c1ccc(Cl)cc1)c1nc(-c2ccco2)oc1SCc1ccccc1F`, the activation is inactive: -25.5%.

Regarding `CCC(=O)N1CCc2cc(S(=O)(=O)NC(Cc3ccccc3)C(=O)Nc3ccccc3C)ccc21` (stereo not drawn), the activation is inactive: -6.89%.

Turning to `CCOc1ccc(OCC)c(NC(=O)c2cc3ccccn3n2)c1`, the activation is inactive: 5.2%.

Regarding `CN(C(=O)CSc1nnc(COc2ccccc2)o1)c1ccccc1`, the activation is inactive: 19.9%.

Regarding `CC(=O)c1cccc(NS(=O)(=O)c2cc3c(cc2C)n(C)c(=O)c(=O)n3C)c1`, the activation is inactive: -18.9%.

For the compound `CCOCCCNC(=O)C(c1ccccc1)N1Cc2ccccc2C1=O` (stereo not drawn), the activation is inactive: -3.98%.

For the compound `O=C(Nc1sc2c(c1C(=O)Nc1ccccc1)CCC2)c1ccc(Br)cc1`, the activation is inactive: -0.469%.

`Cc1cccc(NC(=O)C(=O)NCC(c2ccc3c(c2)OCO3)N2CCN(c3ccccc3)CC2)c1` (stereo not drawn): the activation is inactive: 9.42%.

As to `CC(C(=O)O)c1ccc(/C=C2\CCCCC2=O)cc1` (stereo not drawn), the activation was inactive: 10.3%.

Consider `C#CCn1c(=O)n(-c2cccc(Cl)c2C)c(=O)c2c3c(sc21)CN(C(C)=O)CC3`, for which the activation was inactive: 23.9%.

`Cc1ccc(C)c(N2CCN(CCCNC(=O)c3cnn(-c4ccc(F)cc4)c3C3CCN(C(=O)OC(C)(C)C)CC3)CC2)c1`: the activation is inactive: -9.1%.

As to `CCOc1ccc(CNC(=O)Cn2nc(C)c3c(C)n(-c4ccc(C)cc4)nc3c2=O)cc1`, the activation was inactive: -9.04%.

Regarding `CC(C)C(=O)Nc1nc2c(s1)CC(C(C)(C)C)CC2` (stereo not drawn), the activation is active: 63.2%.

As for `COc1ccc(-c2cnc(C)o2)cc1S(=O)(=O)Nc1ccc(OC(F)(F)F)cc1`, the activation is inactive: -2.74%.

On to `Cc1ccc(C)c(CSc2nnc(C)n3c2cc2sccc23)c1`, for which the activation is inactive: -38.6%.

On to `O=C(CCS(=O)(=O)c1ccccc1)N(Cc1cccnc1)c1nc2ccc(F)cc2s1`, for which the activation is inactive: -15.4%.

As to `CC(=O)c1ccc(-n2c(CCC(=O)O)ccc2-c2cccs2)cc1`, the activation was inactive: -4.82%.

For `O=C(Cn1c(=O)nc(-c2ccccc2)c2ccccc21)N1CCN(c2ccc(F)cc2)CC1`, the activation is inactive: -5.56%.

As to `COc1cc(OC)c(NC2=C(c3ccc(C(F)(F)F)cc3)C(=O)c3ccccc32)cc1Cl`, the activation is inactive: -31.7%.

As for `Cc1noc(/C=C/c2ccccc2F)c1S(=O)(=O)N1CCC(C(=O)NCC(C)c2ccccc2)CC1` (stereo not drawn), the activation is inactive: -6.56%.

Take `COc1cc(NC(=O)C(Cc2ccccc2)NS(=O)(=O)c2cccs2)cc(OC)c1` (stereo not drawn): the activation is inactive: 28.8%.

On to `O=C(CS(=O)(=O)c1cccc2nsnc12)NCc1ccccc1`, for which the activation is inactive: 6.96%.

Regarding `CC(C)Oc1ccccc1NC(=O)CSc1nccn1C`, the activation is inactive: -6.81%.

Take `OCCCn1c(-c2ccc(F)cc2)csc1=Nc1ccc(F)cc1`: the activation is inactive: -7.75%.

In the case of `Cc1ccc(-n2c(=O)c3c(c4cc(C)ccc4n3C)n(CC(=O)c3ccc(Cl)cc3)c2=O)cc1`, the activation is inactive: 0.384%.

On to `O=C(O)CSc1nc2ccc(NC(=O)COc3ccc(Cl)cc3)cc2s1`, for which the activation was inactive: 21.6%.

(Values after PubChem BioAssay AID1346428 (National Center for Advancing Translational Sciences (NCATS), 2018).)
